The source of these data is paper PMC7819943, “Rice protein-binding microarrays: a tool to detect cis-acting elements near promoter regions in rice”.

The list shows a part of the results.

The target in this experiment is T1, OsWOX13 (Oryza sativa, UniProt Q5QMM3 1-267).
T1 sequence: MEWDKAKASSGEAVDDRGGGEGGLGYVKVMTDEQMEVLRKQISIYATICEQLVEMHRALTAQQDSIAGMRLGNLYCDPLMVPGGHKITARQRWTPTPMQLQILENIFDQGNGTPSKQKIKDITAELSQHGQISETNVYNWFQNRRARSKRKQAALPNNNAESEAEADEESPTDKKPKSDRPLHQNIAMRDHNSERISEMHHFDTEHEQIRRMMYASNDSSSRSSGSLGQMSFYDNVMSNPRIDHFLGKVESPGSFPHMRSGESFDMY
Description: protein-binding microarray (RPBM); PBS, 2% BSA, 51.3 ng/ul salmon testes DNA, 50 uM zinc acetate, 200 nM TF, 25 C, 1 h; high values mean tight binding. The following applies: protein: recombinant; tags: N-terminal polyhistidine and DsRed monomer fusion (pET32a); label: CyDye5-dUTP incorporated in the synthesized complementary strand; 3' TTTTT single-stranded linker to array surface; dsDNA, one strand shown. The procedure, abridged: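 The binding signal is fluorescence intensity per array feature (arbitrary units). Readings came from an Axon 4000B scanner after a washed, 2% BSA-blocked, double-stranded custom Agilent array had been incubated for 1 h at 25 °C with 200 nM protein and 50 µM zinc acetate. The protein was a Ni–NTA-purified transcription factor fused N-terminally to polyhistidine and DsRed, expressed in E. coli BL21-CodonPlus.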
On to “AATGAGATTAAGGAGGATTTGAAAGAGATTAATCTCACACCGGAGTCACCTAGTGCAG”, for which the binding signal was 3310 fluorescence intensity (a.u.).

As for “TTTATGTAATTATCATTTATTTTATTATGACTTGATTTGTCGGAGTCACCTAGTGCAG”, the binding signal is 18800 fluorescence intensity (a.u.).

Turning to “GTTGACAAGAAATGACACGTGAGCATGATAGCTCAACGACCGGAGTCACCTAGTGCAG”, the binding signal is 4110 fluorescence intensity (a.u.).

For the sequence “CCGCTCTGCTCCAATCACGTATTTGTCCAAGACAAGCAACCGGAGTCACCTAGTGCAG”, the binding signal was 3860 fluorescence intensity (a.u.).

On to “CATAATTAGCGTTGTTTGTTATAGGGTGTGTATAGGCCTACGGAGTCACCTAGTGCAG”, for which the binding signal is 32800 fluorescence intensity (a.u.).

In the case of “CGTCGAGATTGAAGCCAACACAGCCATGCACTACTAGCTACGGAGTCACCTAGTGCAG”, the binding signal is 17100 fluorescence intensity (a.u.).

On to “TCGTTGACTGATAAAACCTGGTAATTCTGGCCAAACCGGTCGGAGTCACCTAGTGCAG”, for which the binding signal is 32100 fluorescence intensity (a.u.).

“ATGACTAACGTAATGTAAGTGACCATGCATATATGCATGCCGGAGTCACCTAGTGCAG”: the binding signal is 3460 fluorescence intensity (a.u.).

As for “ATGGAAGCCTATTAATTGGTAATACGTAATCTAGAATTGACGGAGTCACCTAGTGCAG”, the binding signal was 13300 fluorescence intensity (a.u.).

“TTGACAGACTGCTGCTGAAAATCAGAGTCCATGGTCAAAACGGAGTCACCTAGTGCAG”: the binding signal is 3890 fluorescence intensity (a.u.).

As to “GTTGCAAAACGGGTTGTTTTAATTGATGAATATGGAAAGACGGAGTCACCTAGTGCAG”, the binding signal was 4310 fluorescence intensity (a.u.).

In the case of “TCTAATGATAAATCATTTATCACTAATTGTAAGAGTGGTACGGAGTCACCTAGTGCAG”, the binding signal is 53400 fluorescence intensity (a.u.).

For the sequence “TCTTCCATTGGTAATTGGATGGTAGTACTATGGCAGAGTTCGGAGTCACCTAGTGCAG”, the binding signal was 3620 fluorescence intensity (a.u.).

For the sequence “TAAAACTCAATCAATCATATATTATTATCACATCGTTTTGCGGAGTCACCTAGTGCAG”, the binding signal was 50000 fluorescence intensity (a.u.).

Consider “TAACAGCCACTAATTATTTCTGAAATATTTGCTCGCTGTACGGAGTCACCTAGTGCAG”, for which the binding signal was 5380 fluorescence intensity (a.u.).

Turning to “TTCCATGGTGATTGTAAGCCGTTCGATTAACGTGGAAAGCCGGAGTCACCTAGTGCAG”, the binding signal was 6960 fluorescence intensity (a.u.).

“ATATGATTAATATTTTATGCGATTAATATTTTATGCGTGACGGAGTCACCTAGTGCAG”: the binding signal was 41400 fluorescence intensity (a.u.).

On to “CAACTGACAGCGAATGATTTTCTTGTGTACTAACCACCACCGGAGTCACCTAGTGCAG”, for which the binding signal was 22100 fluorescence intensity (a.u.).

For “GTGCTGATGATTTCGTGTAACCAATTGTTCCTTTGTAACACGGAGTCACCTAGTGCAG”, the binding signal is 17200 fluorescence intensity (a.u.).

For the sequence “TTCATGAGATTATTAAATGGACTTATTTCTTTGGTCGTAGCGGAGTCACCTAGTGCAG”, the binding signal was 5020 fluorescence intensity (a.u.).

On to “CCATAATCATTTAGACGACCCTGCGATGCTAGTGATAGCACGGAGTCACCTAGTGCAG”, for which the binding signal is 5390 fluorescence intensity (a.u.).

With “TTTAATTAACATTTATATTAATTATATATAGCCATTCTATCGGAGTCACCTAGTGCAG”, the binding signal was 31700 fluorescence intensity (a.u.).

Regarding “CTCTCACTCTAATCATGCATTTAGACCGTTTCCATTTGCTCGGAGTCACCTAGTGCAG”, the binding signal was 7380 fluorescence intensity (a.u.).

In the case of “TTTCATAATTTTAAGCTTCCCTAAACAGGCCCTAAGCCTGCGGAGTCACCTAGTGCAG”, the binding signal is 3890 fluorescence intensity (a.u.).

With “AATACTTAATATAATTTCGTTATAGTGTTTCATCCATGGGCGGAGTCACCTAGTGCAG”, the binding signal is 4330 fluorescence intensity (a.u.).

In the case of “GCCATTGACTGGTGGTGGTGCAGCAAGGATGAAGAGTCATCGGAGTCACCTAGTGCAG”, the binding signal is 11000 fluorescence intensity (a.u.).

On to “CATTGACATGGAGTTATGGACACCCTTCCCGCATCCTCCCCGGAGTCACCTAGTGCAG”, for which the binding signal was 10900 fluorescence intensity (a.u.).

With “TTACTAATTACTTCCATATTAAAGCTATCATCAATCCATCCGGAGTCACCTAGTGCAG”, the binding signal is 21800 fluorescence intensity (a.u.).

“ATTTAGATTGTTTAGGAAACTGTAGAGATTATAAAATAAGCGGAGTCACCTAGTGCAG”: the binding signal was 11700 fluorescence intensity (a.u.).

Turning to “TGGGTGGGCATCAATCTAGACCCAGTCCACGTACGTGGGGCGGAGTCACCTAGTGCAG”, the binding signal was 3320 fluorescence intensity (a.u.).

For the sequence “CGGACTGCAAAATTTGATGGGCCATACTACCACTACTTCCCGGAGTCACCTAGTGCAG”, the binding signal is 3410 fluorescence intensity (a.u.).

Turning to “ATACTAGCTACTAATTAATGGATTAAGGTGATGTTATGGTCGGAGTCACCTAGTGCAG”, the binding signal is 7720 fluorescence intensity (a.u.).

As to “GCAAATTGCATCCTTTGCCAGCTGAGTAATATGAATTGTGCGGAGTCACCTAGTGCAG”, the binding signal was 4990 fluorescence intensity (a.u.).

In the case of “CTCTAAATTTGATTAAGTTTGTAGACAAATATATTATAATCGGAGTCACCTAGTGCAG”, the binding signal was 13500 fluorescence intensity (a.u.).

In the case of “TTAAAGAAGCAATTAGTAAACAAATTAGAGAAGCAGATAGCGGAGTCACCTAGTGCAG”, the binding signal was 7290 fluorescence intensity (a.u.).

Turning to “GAAATTGATGAGTGGGTCCCACGTGTAGTTGAGCCAATCACGGAGTCACCTAGTGCAG”, the binding signal is 31400 fluorescence intensity (a.u.).

For the sequence “GAGTAAATTTAGTTCTTTCTTACTTATTCACGATTGCCGACGGAGTCACCTAGTGCAG”, the binding signal is 9400 fluorescence intensity (a.u.).

In the case of “TATGTAATTTATTTTGTTATTAGACTACGTTTAATAGTTCCGGAGTCACCTAGTGCAG”, the binding signal is 6960 fluorescence intensity (a.u.).

Take “GCCACGTTACTAGTTTAATTAGCAAGAGTGAAACCAATTTCGGAGTCACCTAGTGCAG”: the binding signal is 4470 fluorescence intensity (a.u.).

For the sequence “GCCTTTAAAACCAATAATTGCTATTGTTCTCTAGCTGTTGCGGAGTCACCTAGTGCAG”, the binding signal was 3720 fluorescence intensity (a.u.).

As for “AATGAGCTATTAGATTGGCTATAGATGAATTAAAGCTAATCGGAGTCACCTAGTGCAG”, the binding signal is 7950 fluorescence intensity (a.u.).

Regarding “CCTGCTCCACATTACTACATGATTGCCACATGCTTCACATCGGAGTCACCTAGTGCAG”, the binding signal was 7420 fluorescence intensity (a.u.).
